T1: Mouse GLP-1R (mouse, UniProt O35659 22-463)
T1 sequence (looked up): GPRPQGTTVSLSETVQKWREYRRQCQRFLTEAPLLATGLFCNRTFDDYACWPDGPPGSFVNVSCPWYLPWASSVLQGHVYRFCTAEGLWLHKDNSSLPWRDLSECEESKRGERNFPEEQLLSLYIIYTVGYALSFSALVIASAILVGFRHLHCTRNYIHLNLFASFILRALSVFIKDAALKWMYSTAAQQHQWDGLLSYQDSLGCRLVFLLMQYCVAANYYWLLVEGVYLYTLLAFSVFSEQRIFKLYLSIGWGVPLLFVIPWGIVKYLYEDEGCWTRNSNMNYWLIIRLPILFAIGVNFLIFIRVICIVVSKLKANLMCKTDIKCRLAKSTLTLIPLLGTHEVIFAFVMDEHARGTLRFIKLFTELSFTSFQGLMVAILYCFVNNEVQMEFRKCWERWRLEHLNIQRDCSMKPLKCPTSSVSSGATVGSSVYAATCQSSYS

B1: GLP-1RA/FGF21 Fc fusion protein SEQ ID NO: 30 (Fc fusion)
chain: HGEGTFTSDLSILLDEEAVREFIEWLLATGPVSGAPPPSGGGGGGGSGGGGSGGGGSA[… human IgG4 Fc with changes …]GGGSGSAHPIPDSSPLLQFGGQVRQRYLYTDDACQTEAHLEIREDGTVGGAADQSPESLLQLKALKPGVIQILGVKTSRFLCQRPDGALYGSLHFDPEACSFRELLLEDGYNVYQSEAHGLPLHLPGCKSPHRDPAPRGPARFLPLPGLPPAPPEPPGILAPQPPDVGSSDPLSMVGSQGRSPSYAS
B2: GLP-1RA/FGF21 Fc fusion protein SEQ ID NO: 31 (Fc fusion)
chain: HGEGTFTSDLSILLDEEAVREFIEWLLATGPVSGAPPPSGGGGGGGSGGGGSGGGGSA[… human IgG4 Fc with changes …]GGGSGSAHPIPDSSPLLQFGGQVRQRYLYTDDACQTEAHLEIREDGTVGGAADQSPESLLQLKALKPGVIQILGVKTSRFLCQRPDGALYGSLHFDPEACSFRELLLEDGYNVYQSEAHGLPLHLPGCKSPHRDPAPRGPARFLPLPGLPPAPPEPPGILAPQPPDVGSSDPLSMVYPSQGRSPSYAS
B3: GLP-1RA/FGF21 Fc fusion protein SEQ ID NO: 42 (Fc fusion)
chain: HGEGTFTSDLSIQLDEEAVRLFIEWLLATGPVSGAPPPSGGGGGGGSGGGGSGGGGSA[… human IgG1 Fc with changes …]GGGSGSAHPIPDSSPLLQFGGQVRQRYLYTDDACQTEAHLEIREDGTVGGAADQSPESLLQLKALKPGVIQILGVKTSRFLCQRPDGALYGSLHFDPEACSFRELLLEDGYNVYQSEAHGLPLHLPGCKSPHRDPAPRGPARFLPLPGLPPAPPEPPGILAPQPPDVGSSDPLSMVGSQGRSPSYAS
B4: GLP-1RA/FGF21 Fc fusion protein SEQ ID NO: 43 (Fc fusion)
chain: HGEGTFTSDLSILLDEEAVRLFIEWLLATGPVSGAPPPSGGGGGGGSGGGGSGGGGSA[… human IgG1 Fc with changes …]GGGSGSAHPIPDSSPLLQFGGQVRQRYLYTDDACQTEAHLEIREDGTVGGAADQSPESLLQLKALKPGVIQILGVKTSRFLCQRPDGALYGSLHFDPEACSFRELLLEDGYNVYQSEAHGLPLHLPGCKSPHRDPAPRGPARFLPLPGLPPAPPEPPGILAPQPPDVGSSDPLSMVGSQGRSPSYAS
B5: GLP-1RA/FGF21 Fc fusion protein SEQ ID NO: 45 (Fc fusion)
chain: HGEGTFTSDLSIQLDEEAVRLFIEWLEATGPVSGAPPPSGGGGGGGSGGGGSGGGGSA[… human IgG1 Fc with changes …]GGGSGSAHPIPDSSPLLQFGGQVRQRYLYTDDACQTEAHLEIREDGTVGGAADQSPESLLQLKALKPGVIQILGVKTSRFLCQRPDGALYGSLHFDPEACSFRELLLEDGYNVYQSEAHGLPLHLPGCKSPHRDPAPRGPARFLPLPGLPPAPPEPPGILAPQPPDVGSSDPLSMVYPSQGRSPSYAS
B6: GLP-1RA/FGF21 Fc fusion protein SEQ ID NO: 46 (Fc fusion)
chain: HGEGTFTSDLSILLDEEAVREFIEWLLATGPVSGAPPPSGGGGGGGSGGGGSGGGGSA[… human IgG1 Fc with changes …]GGGSGSAHPIPDSSPLLQFGGQVRQRYLYTDDACQTEAHLEIREDGTVGGAADQSPESLLQLKALKPGVIQILGVKTSRFLCQRPDGALYGSLHFDPEACSFRELLLEDGYNVYQSEAHGLPLHLPGCKSPHRDPAPRGPARFLPLPGLPPAPPEPPGILAPQPPDVGSSDPLSMVGSQGRSPSYAS
B7: GLP-1RA/FGF21 Fc fusion protein SEQ ID NO: 47 (Fc fusion)
chain: HGEGTFTSDLSKQLEEEAVQLFIEWLLATGPSSGKPPPKSGGGGGGGSGGGGSGGGGSA[… human IgG4 Fc with changes …]GGGSGSAHPIPDSSPLLQFGGQVRQRYLYTDDACQTEAHLEIREDGTVGGAADQSPESLLQLKALKPGVIQILGVKTSRFLCQRPDGALYGSLHFDPEACSFRELLLEDGYNVYQSEAHGLPLHLPGCKSPHRDPAPRGPARFLPLPGLPPAPPEPPGILAPQPPDVGSSDPLSMVYPSQGRSPSYAS
B8: GLP-1RA/FGF21 Fc fusion protein SEQ ID NO: 48 (Fc fusion)
chain: HGEGTFTSDLSKQLEEEAVQLFIEWLLATGPSSGKPPPESGGGGGGGSGGGGSGGGGSA[… human IgG4 Fc with changes …]GGGSGSAHPIPDSSPLLQFGGQVRQRYLYTDDACQTEAHLEIREDGTVGGAADQSPESLLQLKALKPGVIQILGVKTSRFLCQRPDGALYGSLHFDPEACSFRELLLEDGYNVYQSEAHGLPLHLPGCKSPHRDPAPRGPARFLPLPGLPPAPPEPPGILAPQPPDVGSSDPLSMVYPSQGRSPSYAS
B9: GLP-1RA/FGF21 Fc fusion protein SEQ ID NO: 49 (Fc fusion)
chain: HGEGTFTSDLSKQLEEEAVQLFIEWLLATGPSSGEPPPKSGGGGGGGSGGGGSGGGGSA[… human IgG4 Fc with changes …]GGGSGSAHPIPDSSPLLQFGGQVRQRYLYTDDACQTEAHLEIREDGTVGGAADQSPESLLQLKALKPGVIQILGVKTSRFLCQRPDGALYGSLHFDPEACSFRELLLEDGYNVYQSEAHGLPLHLPGCKSPHRDPAPRGPARFLPLPGLPPAPPEPPGILAPQPPDVGSSDPLSMVYPSQGRSPSYAS
B10: GLP-1RA/FGF21 Fc fusion protein SEQ ID NO: 50 (Fc fusion)
chain: HGEGTFTSDLSKQLEEEAVQLFIEWLLATGPSSGKPPPKGGGGGGGSGGGGSGGGGSA[… human IgG4 Fc with changes …]GGGSGSAHPIPDSSPLLQFGGQVRQRYLYTDDACQTEAHLEIREDGTVGGAADQSPESLLQLKALKPGVIQILGVKTSRFLCQRPDGALYGSLHFDPEACSFRELLLEDGYNVYQSEAHGLPLHLPGCKSPHRDPAPRGPARFLPLPGLPPAPPEPPGILAPQPPDVGSSDPLSMVYPSQGRSPSYAS
B11: GLP-1RA/FGF21 Fc fusion protein SEQ ID NO: 51 (Fc fusion)
chain: HGEGTFTSDLSKQLEEEAVQLFIEWLLATGPSSGKPPPEGGGGGGGSGGGGSGGGGSA[… human IgG4 Fc with changes …]GGGSGSAHPIPDSSPLLQFGGQVRQRYLYTDDACQTEAHLEIREDGTVGGAADQSPESLLQLKALKPGVIQILGVKTSRFLCQRPDGALYGSLHFDPEACSFRELLLEDGYNVYQSEAHGLPLHLPGCKSPHRDPAPRGPARFLPLPGLPPAPPEPPGILAPQPPDVGSSDPLSMVYPSQGRSPSYAS
B12: GLP-1RA/FGF21 Fc fusion protein SEQ ID NO: 52 (Fc fusion)
chain: HGEGTFTSDLSKQLEEEAVQLFIEWLLATGPSSGEPPPKGGGGGGGSGGGGSGGGGSA[… human IgG4 Fc with changes …]GGGSGSAHPIPDSSPLLQFGGQVRQRYLYTDDACQTEAHLEIREDGTVGGAADQSPESLLQLKALKPGVIQILGVKTSRFLCQRPDGALYGSLHFDPEACSFRELLLEDGYNVYQSEAHGLPLHLPGCKSPHRDPAPRGPARFLPLPGLPPAPPEPPGILAPQPPDVGSSDPLSMVYPSQGRSPSYAS
B13: GLP-1RA/FGF21 Fc fusion protein SEQ ID NO: 53 (Fc fusion)
chain: HGEGTFTSDKSKQLDEQRAKEFIEWLKAGGHPSGKPPPKGGGGGGGSGGGGSGGGGSA[… human IgG4 Fc with changes …]GGGSGSAHPIPDSSPLLQFGGQVRQRYLYTDDACQTEAHLEIREDGTVGGAADQSPESLLQLKALKPGVIQILGVKTSRFLCQRPDGALYGSLHFDPEACSFRELLLEDGYNVYQSEAHGLPLHLPGCKSPHRDPAPRGPARFLPLPGLPPAPPEPPGILAPQPPDVGSSDPLSMVGSQGRSPSYAS
B14: GLP-1RA/FGF21 Fc fusion protein SEQ ID NO: 54 (Fc fusion)
chain: GHGEGTFTSDKSKQLEEEAVRLFIEWLKAGGHPSGKPPPKGGGGGGGSGGGGSGGGGSA[… human IgG4 Fc with changes …]GGGSGSAHPIPDSSPLLQFGGQVRQRYLYTDDACQTEAHLEIREDGTVGGAADQSPESLLQLKALKPGVIQILGVKTSRFLCQRPDGALYGSLHFDPEACSFRELLLEDGYNVYQSEAHGLPLHLPGCKSPHRDPAPRGPARFLPLPGLPPAPPEPPGILAPQPPDVGSSDPLSMVGSQGRSPSYAS
B15: GLP-1RA/FGF21 Fc fusion protein SEQ ID NO: 55 (Fc fusion)
chain: GHGEGTFTSDKSIQLEEEAVRLFIEWLLAGGHPSGKPPPKGGGGGGGSGGGGSGGGGSA[… human IgG4 Fc with changes …]GGGSGSAHPIPDSSPLLQFGGQVRQRYLYTDDACQTEAHLEIREDGTVGGAADQSPESLLQLKALKPGVIQILGVKTSRFLCQRPDGALYGSLHFDPEACSFRELLLEDGYNVYQSEAHGLPLHLPGCKSPHRDPAPRGPARFLPLPGLPPAPPEPPGILAPQPPDVGSSDPLSMVGSQGRSPSYAS
B16: GLP-1RA/FGF21 Fc fusion protein SEQ ID NO: 58 (Fc fusion)
chain: YGEGTFTSDKSKLLEKRLVRLFIEWLIAGGHSSGKPPPKGGGGGGGSGGGGSGGGGSA[… human IgG4 Fc with changes …]GGGSGSAHPIPDSSPLLQFGGQVRQRYLYTDDACQTEAHLEIREDGTVGGAADQSPESLLQLKALKPGVIQILGVKTSRFLCQRPDGALYGSLHFDPEACSFRELLLEDGYNVYQSEAHGLPLHLPGCKSPHRDPAPRGPARFLPLPGLPPAPPEPPGILAPQPPDVGSSDPLSMVGSQGRSPSYAS

These binders were tested against human glucagon-like peptide-1 (GLP-1) receptor (human, UniProt P43220 24-463) (assay: cell-based or functional assay).

| Binder | HTRF cAMP EC50 |
| --- | --- |
| B1 | 0.042 nM |
| B2 | 0.0323 nM |
| B3 | 0.0181 nM |
| B4 | 0.0137 nM |
| B5 | 0.0482 nM |
| B6 | 0.00847 nM |
| B7 | 0.017 nM |
| B8 | 0.0357 nM |
| B9 | 0.0234 nM |
| B10 | 0.0205 nM |
| B11 | 0.0268 nM |
| B12 | 0.0256 nM |
| B13 | 0.0284 nM |
| B14 | 0.107 nM |
| B15 | 0.261 nM |
| B16 | 0.00938 nM |

Each binder was assayed against Monkey GLP-1R (monkey) (assay: cell-based or functional assay).

| Binder | HTRF cAMP EC50 |
| --- | --- |
| B1 | 0.0733 nM |
| B2 | 0.0628 nM |
| B3 | 0.0222 nM |
| B4 | 0.0174 nM |
| B5 | 0.0604 nM |
| B6 | 0.0114 nM |
| B7 | 0.0356 nM |
| B8 | 0.0606 nM |
| B9 | 0.0422 nM |
| B10 | 0.0382 nM |
| B11 | 0.0511 nM |
| B12 | 0.046 nM |
| B13 | 0.025 nM |
| B14 | 0.0974 nM |
| B15 | 0.157 nM |
| B16 | 0.00576 nM |

The binders below were run against T1, Mouse GLP-1R (assay: cell-based or functional assay).

| Binder | HTRF cAMP EC50 |
| --- | --- |
| B1 | 0.125 nM |
| B2 | 0.113 nM |
| B3 | 0.0432 nM |
| B4 | 0.0315 nM |
| B5 | 0.492 nM |
| B6 | 0.0179 nM |
| B7 | 0.00664 nM |
| B8 | 0.0101 nM |
| B9 | 0.00665 nM |
| B10 | 0.00787 nM |
| B11 | 0.00758 nM |
| B12 | 0.00704 nM |
| B13 | 0.128 nM |
| B14 | 0.119 nM |
| B15 | 0.596 nM |
| B16 | 0.00719 nM |

Source: patent publication US20230250147A1 (Sanofi, published 2023)
